Reference: PubChem BioAssay (NCATS)
Inconclusive means that the source gave no clear call. Such entries were picked first, then a sample of the others. No potency is given beside an inconclusive call; the fits are too rough. Active and inactive are the calls of the source. The call rests on the fitted dose curve; in most records, active means well fitted activation curve with a large enough effect; inconclusive means small, poorly fitted or top-dose-only effect; inactive means no such curve, though single readings can be large or run the other way.

target: Rap guanine nucleotide exchange factor 3 (Homo sapiens) (UniProt O95398); experiment: Confirmatory qHTS for agonist of cAMP-regulated guanine nucleotide exchange factor 3 (EPAC1) (AID 1645881); conditions: EPAC1 Rap1B BODIPY-GDP exchange fluorescence; activation: at 154 µM (top of the series), 100% = cAMP control response; further: nearly all actives have a fitted effect of over 75% in size;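 on activation: EPAC1 catalysed release of BODIPY-GDP from Rap1B seen as fluorescence loss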
Potency means the concentration at half of the fitted maximal effect; tags describe the fitted curve by direction and shape.

Sequence of UniProt O95398 (O95398 whole entry, looked up): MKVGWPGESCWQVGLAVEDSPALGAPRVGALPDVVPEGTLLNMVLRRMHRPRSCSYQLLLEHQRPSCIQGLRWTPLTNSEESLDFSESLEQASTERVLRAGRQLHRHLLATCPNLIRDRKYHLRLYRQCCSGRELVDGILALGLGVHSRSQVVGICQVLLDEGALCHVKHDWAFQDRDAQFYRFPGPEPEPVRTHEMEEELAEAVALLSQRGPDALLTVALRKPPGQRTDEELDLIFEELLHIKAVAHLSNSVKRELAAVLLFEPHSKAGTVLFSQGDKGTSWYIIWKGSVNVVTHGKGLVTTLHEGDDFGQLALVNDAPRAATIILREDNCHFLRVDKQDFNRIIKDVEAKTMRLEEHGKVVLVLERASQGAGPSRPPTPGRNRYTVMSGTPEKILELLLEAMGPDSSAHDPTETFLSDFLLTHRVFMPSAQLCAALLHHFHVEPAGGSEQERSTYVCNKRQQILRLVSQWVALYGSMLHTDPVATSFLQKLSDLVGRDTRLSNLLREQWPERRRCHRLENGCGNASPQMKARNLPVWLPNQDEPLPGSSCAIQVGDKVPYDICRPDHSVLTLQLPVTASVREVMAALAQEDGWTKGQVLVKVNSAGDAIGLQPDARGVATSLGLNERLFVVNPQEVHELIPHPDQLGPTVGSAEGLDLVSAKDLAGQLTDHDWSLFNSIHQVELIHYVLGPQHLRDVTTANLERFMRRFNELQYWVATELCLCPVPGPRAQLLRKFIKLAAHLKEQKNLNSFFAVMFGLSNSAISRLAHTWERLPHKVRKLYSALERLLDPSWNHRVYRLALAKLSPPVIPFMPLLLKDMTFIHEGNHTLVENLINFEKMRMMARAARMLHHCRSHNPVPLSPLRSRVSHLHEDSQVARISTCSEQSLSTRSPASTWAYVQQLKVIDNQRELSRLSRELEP

Row | SMILES | Potency | activation
1 | O=C(N/N=C\c1c(O)ccc2ccccc12)c1ccc(S(=O)(=O)N2CCCCC2)cc1 | active: 44.7 µM | –
2 | C[n+]1ccc(/C=C/c2c[nH]c3ccccc23)cc1 | inconclusive [activator, single point] | –
3 | CC1CCN(c2ccc3c(c2)S(=O)(=O)c2cccc(C(=O)NC4CCCCC4)c2C3=O)CC1 | active: 89.1 µM | –
4 | Cc1ccc2c(c1)N(Cc1cccc(F)c1)C(=O)C(C)O2 (configuration not stated) | inconclusive [activator, partial curve, poor fit] | –
5 | COc1cccc(Nc2nnc(-c3cc4ccc(O)cc4oc3=O)s2)c1 | inconclusive [activator, full curve] | –
6 | COCCn1c2nc(=O)n(-c3ccccc3)c(=O)c-2nc2ccccc21 | inconclusive [activator, partial curve, poor fit] | –
7 | COc1ccc(Nc2cccc3ccccc23)cc1 | – | inactive: 22.3%
8 | CN1CC=C2C(C#N)=C(N)C(C#N)(C#N)C(c3ccsc3)C2C1 (configuration not stated) | inconclusive [activator, partial curve] | –
9 | N#CC(C#N)=C1C=C2C=C(N3CCOCC3)CCC2CC1 (configuration not stated) | active: 44.7 µM | –
10 | COc1ccc2c(c1)CCC1C2=NN(/C(C)=C/C(C)=O)C1c1cccc(F)c1 (configuration not stated) | inconclusive [activator, partial curve] | –
11 | O=C1NC(=O)C2(N1)C(=O)c1cccc3cccc2c13 (configuration not stated) | active: 112 µM | –
12 | CN1/C(=C\C=C(/C#N)C(=O)Nc2ccc(Cl)cc2)C(C)(C)c2ccccc21 | active: 100 µM | –
13 | COc1ccccc1C(=O)Oc1ccc2c(c1)O/C(=C\c1ccncc1)C2=O | inconclusive [activator, partial curve, poor fit] | –
14 | CCN1C/C(=C/c2ccc(N3CCOCC3)cc2)C(=O)/C(=C/c2ccc(N3CCOCC3)cc2)C1 | active: 100 µM | –
15 | COc1cc2c3nnc(-c4ccc(F)cc4)c-3cn(Cc3cccc(C)c3)c2cc1OC | inconclusive [activator, single point] | –
16 | CCN(CC)c1ccc2oc(=O)c(C)nc2c1 | active: 100 µM | –

Row | SMILES | Potency | activation
17 | O=C1c2cccc3c(O)ccc(c23)C(=O)N1c1ccc(Cl)cc1 | active: 112 µM | –
18 | CCCCN(C)C1=CC2=CC(=C(C#N)C#N)CCC2CC1 (configuration not stated) | inconclusive [activator, partial curve, poor fit] | –
19 | N#C/C(=C/c1ccc(N2CCCCC2)o1)C(=O)Nc1ccc(Cl)cc1 | active: 17.8 µM | –
20 | CC(=NNC(=O)c1ccncc1)c1ccc2ccccc2c1O | active: 100 µM | –
21 | Cc1ccc(-c2nc(S(=O)(=O)c3ccc(C)cc3)c(N3CCOCC3)o2)cc1 | inconclusive [activator, partial curve, poor fit] | –
22 | CN(C)c1ccc(C(=O)/C=C/c2ccc(Br)cc2)cc1 | inconclusive [activator, partial curve, poor fit] | –
23 | Cc1ccc2oc(=O)c(/C=C(\O)c3cccs3)nc2c1 | active: 100 µM | –
24 | COc1ccc2c(c1)C(=O)CCC2c1ccccc1 (configuration not stated) | inconclusive [activator, partial curve] | –
25 | Cc1cc2nc3c(=O)n(C)c(=O)n(C)c3nc2cc1N=CN(C)C | active: 50.1 µM | –
26 | CCCN1CC=C2C(C#N)=C(N)C(C#N)(C#N)C(c3cccc(OC)c3OC)C2C1 (configuration not stated) | inconclusive [activator, partial curve] | –
27 | O=C(NCc1ccc(F)cc1)c1cccc2c1C(=O)c1ccc(N3CCC(Cc4ccccc4)CC3)cc1S2(=O)=O | inconclusive [activator, partial curve] | –
28 | CCOC(=O)c1cc2n(c1N)-c1ccccc1C2=O | active: 100 µM | –
29 | CCN(CC)c1ccc2cc(-c3nnc(-c4cccc(Cl)c4)o3)c(=O)oc2c1 | active: 44.7 µM | –
30 | Cc1cccc(C(C)C)c1-n1nnnc1-c1ccccc1 | inconclusive [activator, partial curve, poor fit] | –
31 | CCSc1nnc(-c2sc3nnc(-c4ccccc4)c(-c4ccccc4)c3c2N)o1 | inconclusive [activator, partial curve, poor fit] | –
32 | Cc1ccc(/C=C/C(=O)c2ccc(N3CCOCC3)cc2)s1 | inconclusive [activator, partial curve] | –
